Among the data in the GPR68 mutational scans of Howard et al. (2025) are cAMP reporter score and surface expression score values, retold here.

B1: GPR68, Q15743 (parent)
chain: MGNITADNSSMSCTIDHTIHQTLAPVVYVTVLVVGFPANCLSLYFGYLQIKARNELGVYLCNLTVADLFYICSLPFWLQYVLQHDNWSHGDLSCQVCGILLYENIYISVGFLCCISVDRYLAVAHPFRFHQFRTLKAAVGVSVVIWAKELLTSIYFLMHEEVIEDENQHRVCFEHYPIQAWQRAINYYRFLVGFLFPICLLLASYQGILRAVRRSHGTQKSRKDQIQRLVLSTVVIFLACFLPYHVLLLVRSVWEASCDFAKGVFNAYHFSLLLTSFNCVADPVLYCFVSETTHRDLARLRGACLAFLTCSRTGRAREAYPLGAPEASGKSGAQGEEPELLTKLHPAFQTPNSPGSGGFPTGRLA

Scores with a large standard error are left out. Two further conditions of the source, in which the scores hardly spread, are not listed. In variant names, del marks residues removed and ins residues inserted between the two positions. For part of these data: How much ogerin was present is not stated here.

Data set [1] covers variants of B1. Put plainly: cAMP reporter score (Enrich2 score, wild type = 0); higher = more signal; HEK293T, FACS bins.
Variants of B1 are the subject of data set [2]. Put plainly: surface expression score (Enrich2 score, wild type = 0); higher = more signal; HEK293T, FACS bins.

Consider S353Y, for which the cAMP reporter score was -0.464 in data set [1] (pH 5.5); 0.248 in data set [1] (pH 6); -0.753 in data set [1] (pH 6, modulator: ogerin); -0.323 in data set [1] (pH 6.5, modulator: ogerin). Further, the surface expression score in data set [2] was 0.109.
For S353C, in that order: -0.171, -0.175, 0.465, 0.241 and -0.295.
With S353D, the cAMP reporter score was 0.077 in data set [1] (pH 5.5); -0.123 in data set [1] (pH 6, modulator: ogerin); -0.157 in data set [1] (pH 6.5, modulator: ogerin). Further, the surface expression score in data set [2] is 0.037.
The matching figures for S353L: 0.123, 0.047, -0.325 and 0.437.
For S353A, the cAMP reporter score in data set [1] (pH 5.5) was 0.372; in data set [1] (pH 6) it was 0.364; in data set [1] (pH 6, modulator: ogerin), 0.454; in data set [1] (pH 6.5, modulator: ogerin) it was -0.04. Moreover, in data set [2], the surface expression score is -0.252.
As to S353T, the cAMP reporter score in data set [1] (pH 5.5) is -0.214; in data set [1] (pH 6), -0.088; in data set [1] (pH 6, modulator: ogerin), -0.369; in data set [1] (pH 6.5, modulator: ogerin), -0.551. For the same variant, in data set [2], the surface expression score was -0.399.
The matching figures for S353I: 0.847, 0.741, 1.37, 1.34 and 0.636.
P351_N352insGS: the cAMP reporter score in data set [1] (pH 5.5) was -0.028; in data set [1] (pH 6), 0.597; in data set [1] (pH 6, modulator: ogerin), 0.396; in data set [1] (pH 6.5, modulator: ogerin), 0.52. Besides, in data set [2], the surface expression score is 0.495.
The matching figures for L364_A365insGSG: 1.13, 0.565, 1.25, 0.889 and 1.15.
Regarding G355_S356del, the cAMP reporter score turned out to be 0.098 in data set [1] (pH 5.5); 0.561 in data set [1] (pH 6); 0.417 in data set [1] (pH 6, modulator: ogerin); 0.05 in data set [1] (pH 6.5, modulator: ogerin). Further, in data set [2], the surface expression score was determined as 0.138.
As to F359_P360insGS, the cAMP reporter score in data set [1] (pH 5.5) turned out to be 0.149; in data set [1] (pH 6) it was 0.533; in data set [1] (pH 6, modulator: ogerin), 0.302; in data set [1] (pH 6.5, modulator: ogerin), 0.827. Moreover, the surface expression score in data set [2] was 0.132.
With H20_Q21insGSG, the cAMP reporter score in data set [1] (pH 6) is -0.099; in data set [1] (pH 6, modulator: ogerin) it was -1.4; in data set [1] (pH 6.5, modulator: ogerin), -1.18. Further, in data set [2], the surface expression score was -2.62.
On to G46M, for which the cAMP reporter score was -1.39 in data set [1] (pH 6); -1.03 in data set [1] (pH 6, modulator: ogerin); -1.74 in data set [1] (pH 6.5, modulator: ogerin). Besides, the surface expression score in data set [2] is -2.23.
Consider R363_A365del, for which the cAMP reporter score in data set [1] (pH 5.5) was 0.383; in data set [1] (pH 6), -0.69; in data set [1] (pH 6, modulator: ogerin), 0.063; in data set [1] (pH 6.5, modulator: ogerin) it was 0.334. Also, the surface expression score in data set [2] is -0.048.
Consider P351del, for which the cAMP reporter score came out at 0.459 in data set [1] (pH 5.5); 0.201 in data set [1] (pH 6, modulator: ogerin); 0.729 in data set [1] (pH 6.5, modulator: ogerin). Also, the surface expression score in data set [2] is 0.54.
The matching figures for L364_A365del: 1.57, 1.02, 0.69 and 1.32.
Turning to L364_A365insGS, the cAMP reporter score in data set [1] (pH 5.5) was 0.58; in data set [1] (pH 6) it was 1.88; in data set [1] (pH 6, modulator: ogerin), 0.177. Moreover, the surface expression score in data set [2] is 1.44.
Consider S353del, for which the cAMP reporter score is 0.231 in data set [1] (pH 5.5); 0.449 in data set [1] (pH 6, modulator: ogerin); 0.07 in data set [1] (pH 6.5, modulator: ogerin). For the same variant, the surface expression score in data set [2] was -0.46.
With S356H, the cAMP reporter score stood at 1.49 in data set [1] (pH 5.5); 1.38 in data set [1] (pH 6, modulator: ogerin); 1.27 in data set [1] (pH 6.5, modulator: ogerin).
With S356L, the cAMP reporter score in data set [1] (pH 5.5) was 0.145; in data set [1] (pH 6, modulator: ogerin) it was 0.637; in data set [1] (pH 6.5, modulator: ogerin) it was 0.519. In addition, the surface expression score in data set [2] was -0.02.
With S356W, the cAMP reporter score was -0.393 in data set [1] (pH 5.5); -0.541 in data set [1] (pH 6); -0.06 in data set [1] (pH 6, modulator: ogerin); -0.576 in data set [1] (pH 6.5, modulator: ogerin). In addition, the surface expression score in data set [2] is -0.541.
In the case of S356P, the cAMP reporter score in data set [1] (pH 5.5) is -0.163; in data set [1] (pH 6), -0.245; in data set [1] (pH 6, modulator: ogerin), -0.65; in data set [1] (pH 6.5, modulator: ogerin), 0.163. Moreover, the surface expression score in data set [2] is -0.044.
With S356R, the cAMP reporter score in data set [1] (pH 5.5) is -0.295; in data set [1] (pH 6) it was -1.3; in data set [1] (pH 6, modulator: ogerin), -0.367; in data set [1] (pH 6.5, modulator: ogerin) it was 0.325. Also, in data set [2], the surface expression score is -0.191.
Take S356K: the cAMP reporter score in data set [1] (pH 5.5) is 1.21; in data set [1] (pH 6), 1.2; in data set [1] (pH 6, modulator: ogerin), 0.227; in data set [1] (pH 6.5, modulator: ogerin) it was 1.1. In addition, in data set [2], the surface expression score was found to be 0.714.
Take S356D: the cAMP reporter score worked out at 1.01 in data set [1] (pH 5.5); 0.808 in data set [1] (pH 6); 0.73 in data set [1] (pH 6, modulator: ogerin); 1.8 in data set [1] (pH 6.5, modulator: ogerin). In data set [2], the surface expression score amounted to 1.21.
Take S356C: the cAMP reporter score in data set [1] (pH 5.5) is 0.472; in data set [1] (pH 6, modulator: ogerin), 0.128; in data set [1] (pH 6.5, modulator: ogerin) it was -0.021. The surface expression score in data set [2] came out at 0.198.
Take S356Y: the cAMP reporter score came out at 0.384 in data set [1] (pH 5.5); 0.938 in data set [1] (pH 6); 0.759 in data set [1] (pH 6, modulator: ogerin); 0.657 in data set [1] (pH 6.5, modulator: ogerin). Also, the surface expression score in data set [2] was determined as 0.893.
For S356V, in that order: 0.383, -0.898, 1.15, 1.53 and -0.201.
For the variant S356M, the cAMP reporter score in data set [1] (pH 5.5) is 0.113; in data set [1] (pH 6), 0.16; in data set [1] (pH 6, modulator: ogerin), -0.189; in data set [1] (pH 6.5, modulator: ogerin), 0.237. Also, the surface expression score in data set [2] was determined as 0.129.
Take S356F: the cAMP reporter score in data set [1] (pH 5.5) came out at 0.185; in data set [1] (pH 6) it was 0.142; in data set [1] (pH 6, modulator: ogerin) it was 0.369. The surface expression score in data set [2] amounted to 2.11.
Take S356Q: the cAMP reporter score in data set [1] (pH 5.5) is 0.833; in data set [1] (pH 6) it was 2.86; in data set [1] (pH 6, modulator: ogerin), 1.45; in data set [1] (pH 6.5, modulator: ogerin), 1.09. Further, in data set [2], the surface expression score worked out at 0.382.
Consider S356A, for which the cAMP reporter score in data set [1] (pH 5.5) is 0.174; in data set [1] (pH 6) it was 0.213; in data set [1] (pH 6, modulator: ogerin), 0.665; in data set [1] (pH 6.5, modulator: ogerin) it was 0.651. Also, in data set [2], the surface expression score was 0.159.
